# The list shows a part of the results.
# Molecular target: no compound (DMSO)
# Assay: log2 fold change of degron read counts, EGFP-low vs EGFP+ sorted cells; higher = lower degron-EGFP level without compound (poor expression or instability)
# Details: compound: DMSO control; 18 h
# 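Further: jurkat cells carrying a lentiviral library of mutant zinc finger degrons fused to EGFP plus mCherry, mCherry+ cells FACS sorted, degron abundance counted by next-generation sequencing.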
row,Sequence,log2 fold change of degron read counts
1,FCCEVCGAVFTQKGNLLRHIKL,-1.06
2,FCCEVCGARFTQKGNLLRHIKL,-1.59
3,LMCNQCGFVCTQKGNLLRHIKL,1.09
4,FHCEICGRCFTQKGNLLRHIKL,-0.893
5,LDCEICGFFCTQKGNLLRHIKL,2.21
6,FLCNQCGAYFTQKGNLLRHIKL,0.0812
7,FCCEVCGACFTQKGNLLRHIKL,-0.375
8,FFCSVCGHVFTQKGNLLRHIKL,0.307
9,FSCPICGHPFTQKGNLLRHIKL,-0.373
10,FECDQCGAQFTQKGNLLRHIKL,-2.62
11,LSCEICGFPCTQKGNLLRHIKL,0.179
12,LRCPICGFRCTQKGNLLRHIKL,0.556
13,FMCNICGAPFTQKGNLLRHIKL,0.493
14,FKCEICGAQFTQKGNLLRHIKL,-1.99
15,FKCEVCGARFTQKGNLLRHIKL,-2.46
16,FRCDQCGAYFTQKGNLLRHIKL,-0.836
17,FECNICGASFTQKGNLLRHIKL,-1.36
18,FKCDVCGAQFTQKGNLLRHIKL,-0.953
19,FVCPICGHKFTQKGNLLRHIKL,-1.18
20,FKCPICGHQFTQKGNLLRHIKL,-0.43
21,FECDICGAHFTQKGNLLRHIKL,-2.2
22,FHCEICGAGFTQKGNLLRHIKL,-2.11
23,LVCPICGFECTQKGNLLRHIKL,0.11
24,FLCNQCGRRFTQKGNLLRHIKL,0.178
25,FNCNQCGAYFTQKGNLLRHIKL,-0.132

row,Sequence,log2 fold change of degron read counts
1,FQCEVCGAMFTQKGNLLRHIKL,-1.84
2,FLCDICGASFTQKGNLLRHIKL,-2.52
3,FMCDQCGAVFTQKGNLLRHIKL,-1.11
4,LACPICGFACTQKGNLLRHIKL,0.838
5,LKCNQCGFKCTQKGNLLRHIKL,0.368
6,FWCEICGHVFTQKGNLLRHIKL,0.127
7,FGCNICGARFTQKGNLLRHIKL,0.00155
8,FACPQCGADFTQKGNLLRHIKL,-1.96
9,FECPICGATFTQKGNLLRHIKL,-0.108
10,LYCNQCGFMCTQKGNLLRHIKL,1.14
11,LSCNQCGFPCTQKGNLLRHIKL,0.945
12,LNCNQCGFFCTQKGNLLRHIKL,1.77
13,FICNQCGRDFTQKGNLLRHIKL,-1.2
14,FLCNQCGHMFTQKGNLLRHIKL,-0.487
15,FECNVCGAKFTQKGNLLRHIKL,-1.07
16,FQCNQCGADFTQKGNLLRHIKL,-1.18
17,FACPICGRAFTQKGNLLRHIKL,-0.414
18,FHCDQCGAPFTQKGNLLRHIKL,-2.27
19,FKCPQCGAQFTQKGNLLRHIKL,-1.55
20,FECNICGACFTQKGNLLRHIKL,-0.964
21,FHCNQCGADFTQKGNLLRHIKL,-1.15
22,FACPVCGAAFTQKGNLLRHIKL,-0.357
23,FACNICGAKFTQKGNLLRHIKL,-0.554
24,FRCEVCGAHFTQKGNLLRHIKL,-0.866
25,FMCEQCGAIFTQKGNLLRHIKL,-0.358

# Reference: the supplement of paper PMC12645437, “Orthogonal IMiD-Degron Pairs Induce Selective Protein Degradation in Cells” (ACS Chemical Biology, 2025)
